This is one part of the list. These are further read-outs of the screen, such as a control signal, another cell line or another target. No call is given for them.
Experiments:
Assay in all cases: Primary Screen for Target Class Profiling of Small Molecule Inhibitors of Methyltransferases
[1] = molecular target: Glycine N-methyltransferase (Homo sapiens) (UniProt Q14749); settings: purified enzyme, MTase-Glo SAH luminescence; measured here: GNMT inhibition; at 40 µM; stronger effect = lower value
In short: (§1)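 Each enzyme was reacted with SAM and its substrate, with compounds tested once at 40 uM; SAH formed was read by MTase-Glo luminescence.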

[2] = molecular target: Guanidinoacetate N-methyltransferase (Homo sapiens) (UniProt Q14353); settings: purified enzyme, MTase-Glo SAH luminescence; measured here: GAMT inhibition; at 40 µM; stronger effect = lower value
In short: as §1

[3] = molecular target: Histamine N-methyltransferase (Homo sapiens) (UniProt P50135); settings: purified enzyme, MTase-Glo SAH luminescence; measured here: HNMT inhibition; at 40 µM; stronger effect = lower value
In short: as §1

[4] = molecular target: Nicotinamide N-methyltransferase (Homo sapiens) (UniProt P40261); settings: purified enzyme, MTase-Glo SAH luminescence; measured here: NNMT inhibition; at 40 µM; stronger effect = lower value
In short: as §1

[5] = molecular target: Phenylethanolamine N-methyltransferase (Homo sapiens) (UniProt P11086); settings: purified enzyme, MTase-Glo SAH luminescence; measured here: PNMT inhibition; at 40 µM; stronger effect = lower value
In short: as §1
% is scaled to controls: 0 for no effect and ±100 for the full control effect.

Structure (SMILES) | activity change, negative = inhibition [1] [%] | activity change, negative = inhibition [2] [%] | activity change, negative = inhibition [3] [%] | activity change, negative = inhibition [4] [%] | activity change, negative = inhibition [5] [%]
COc1ccccc1CNC(=O)C1(C)Cn2c(cc3ccccc32)C(=O)N1CCC(C)C (stereo not given) | 2.05 | 4.59 | 8.1 | 3.23 | 1.06
O=C1NCCC[C@@H]1NC(=O)[C@H]1CN(C(=O)c2cccc(F)c2)CCN1C(=O)c1cccs1 | -2.07 | -2.91 | -0.039 | -12 | -21.5
Cc1cccc(NC(=O)Cn2c(=O)oc3cc(S(=O)(=O)NCc4ccccc4)ccc32)c1C | -4.73 | 1.93 | -0.909 | 3.52 | -5.88
COC(=O)c1ncn2c1C(=O)N(Cc1ccccc1)C(C)(C(=O)NC1CCCC1)C2 (stereo not given) | 5.41 | 0 | 0.292 | 3.86 | -0.49
CSC(Cc1ccc(Cl)cc1)C(=O)Nc1ccc(Cl)cc1C(=O)O (stereo not given) | – | -2.45 | – | -18.3 | 5.61
CN1C(=O)N(c2cc(Cl)cc(Cl)c2)C(=O)[C@@]1(C)Cc1ccc(Br)cc1 | 3.17 | 4.22 | 7.29 | -14.8 | -0.742
CC(=O)/C=C/C1C(C)CC(O[C@@H]2O[C@H](CO)[C@@H](O)[C@H](O)[C@H]2O)CC1(C)C (stereo not given in full) | 0.673 | 1.54 | 9.28 | -12.2 | 2.77
O=C(CCc1nnc2n(CCc3ccccc3)c(=O)c3ccccc3n12)N1CCC(N2CCCCC2)CC1 | -4.83 | 3.78 | -69.8 | 4.7 | -4.27
CCc1noc([C@@H]2CC(F)(F)CN2C(=O)c2ccn(CC)n2)n1 | -2.25 | -0.628 | 0.16 | -2.4 | 0.552
CN1C(=O)c2cc(C(=O)NCCCN3CCc4ccccc4C3)nn2CC1(C)C(=O)NC1CCCC1 (stereo not given) | -14.3 | 0 | -7.06 | -7.71 | -9.82
CCCNC(=O)N(C1CCOCC1)C1CCN(C(=O)Cc2cccnc2)CC1 | -0.955 | 0.634 | -0.161 | 4.24 | 14.6
O=C(Cc1cccc(Cl)c1)NCCNC(=O)c1cccc(-c2ccsc2)c1 | -3.56 | -3.89 | 0.35 | -4.62 | -3.37
O=C(c1ccc(F)cc1)N1CCCC(C(=O)N2CCCC2c2nc3ccncc3[nH]2)C1 (stereo not given) | -5.28 | -6.59 | -2.29 | -12.3 | -10.5
CC1c2cccn2CCN1C(=O)Nc1ccc(F)c(Cl)c1 (stereo not given) | -2.27 | 0 | 5.78 | -6.96 | -0.069
Cc1ccc(NC(=O)Cn2nc3n(C)c(=O)c4ccc(C(=O)NC5CCCCC5)cc4n3c2=O)cc1F | 1.94 | 0.864 | 1.38 | 6.06 | 3.85
CC(=O)N1CCn2c(nn(-c3ccncc3)c2=O)C1 | -4.31 | -7.25 | -0.045 | -13.2 | -6.7
CCCN1C(=O)c2c(C(=O)NCc3cccc(F)c3)ncn2CC1(C)C(=O)NCc1ccc(C)cc1 (stereo not given) | -2.65 | 0.97 | 4.29 | 4.28 | 6.05
Cc1nn(C)c(C)c1CNC(=O)C1CC(=O)N(c2n[nH]c3cccc(F)c23)C1 (stereo not given) | -4.74 | -1.52 | 2.12 | -3.79 | -3.39
COc1ccc(OC)c(S(=O)(=O)N2CCCOCCNC(=O)[C@@H]3CCCC[C@@H]32)c1 | -5.28 | -2.39 | 0.802 | -8.81 | 6.46
Cn1nccc1Nc1nccc(-c2ccn([C@H](CO)c3ccc(Cl)c(F)c3)c(=O)c2)n1 | 2.16 | 6.2 | -2.34 | -23.3 | 3.94

Structure (SMILES) | activity change, negative = inhibition [1] [%] | activity change, negative = inhibition [2] [%] | activity change, negative = inhibition [3] [%] | activity change, negative = inhibition [4] [%] | activity change, negative = inhibition [5] [%]
CCc1ccc(NC(=O)c2cc3n(n2)CC(C)(C(=O)NC2CCCCC2)N(C)C3=O)cc1 (stereo not given) | 0.273 | 0 | 8.97 | 10.7 | 5.09
NCC(=O)N1CCC2(CC1)CN([S+](=O)([O-])c1ccccc1)CCO2 | -2.35 | -4.72 | 0.016 | -11.2 | 2.23
O=[S+]([O-])(c1cccc(C(F)(F)F)c1)N1CCc2nc(-c3ccccc3)nc(-c3ccc(Cl)cc3)c2C1 | -1.93 | -6.85 | -1.34 | -14.7 | 6.21
C=C1C(=O)O[C@@H]2C[C@@]3(C)CCC[C@H](C)C3=C[C@H]12 | -0.784 | -3.2 | 5.11 | -13.1 | -4.51
CC(C)CCN1CCC2(COc3ccccc3C(=O)N2)C1 (stereo not given) | -7.44 | -7.61 | -8.97 | -10.7 | -9.85
CN1CCN(Cc2cccc(OCC(O)CN3CCOCC3)c2)CC1(C)C (stereo not given) | -3.38 | -2.35 | -5.48 | -3.36 | -17.7
C/C=C(\C)[C@@H]1C(C)=C[C@@H]2[C@H]([C@@H]1/C=C/C=C/C(=O)O)[C@@H](C)CC[C@@H]2O | 0.256 | 3.38 | 6.79 | -36.4 | -5.11
CCC(=O)N1CCc2c(C(=O)NCC(C)C)cccc21 | -3.23 | -1.67 | -2.98 | -5.63 | -4.14
CCN(CC1CCCN(CCc2cccc(OC)c2)C1)C(=O)CSC (stereo not given) | -2.1 | -1.84 | -6.13 | -9.89 | 9.16
CC1(C(=O)NC2CCCC2)Cn2c(cc3ccccc32)C(=O)N1Cc1cccs1 (stereo not given) | -0.439 | 4.5 | 4.51 | -9.79 | 0.229
Nc1ncnc2c1c(-c1ccc(Cl)cc1)nn2-c1cccc(-c2cnnn2Cc2cccc(-c3ccccc3)c2)c1 | 5.58 | -24 | 8.45 | -33.7 | -17.3
CCC1c2ccc(C)n2CCN1C(=O)Nc1ccccc1C(=O)OC (stereo not given) | -1.5 | -1.57 | 8.09 | 5.34 | -1.42
O=C(Nc1ccccc1C(=O)Nc1ccc(CCO)cc1)c1ccc([N+](=O)[O-])cc1 | -7.16 | -2.09 | 5.58 | -17.2 | 2.44
O=S(=O)(NCCc1ccccc1)c1ccc2[nH]c3c(c2c1)CCCC3 | -6.77 | 1.28 | -22.9 | -13.1 | -3.73
CN1C(=O)c2cc3ccccc3n2CC1(C)C(=O)NCC(=O)NCCCc1ccccc1 (stereo not given) | 0.293 | 0.201 | 11.3 | 4.85 | 6.38
O=C(CCn1cccn1)NC1CC(=O)N(Cc2cccc3ccccc23)C1 (stereo not given) | -6.35 | -9.44 | -4.71 | -13.5 | -8.44
Cc1cnc(CNC(=O)c2c(=O)c3ccc(N4CCCN(C)CC4)nc3n3c2sc2ccccc23)cn1 | -40.7 | 9.45 | -5.7 | -6.7 | 2.18
CCc1ccc(CN2C(=O)c3ccc(-c4ccccc4)n3CC2(C)C(=O)NC2CCCCCC2)cc1 (stereo not given) | 0.296 | 0.077 | -1.07 | -4.61 | -4.85
Cc1cc(C)c(CNC(=O)c2nc(-c3cccnc3)cc3[nH]ccc23)c(=O)[nH]1 | -45.8 | -19.6 | -20.9 | -26.6 | -26.2
CN(C)c1ccc(CNC(=O)c2cc3n(n2)CC(C)(C(=O)NCc2ccc(F)cc2)N(C)C3=O)cc1 (stereo not given) | -3.65 | 2.11 | -8.22 | -4.74 | -0.283

Structure (SMILES) | activity change, negative = inhibition [1] [%] | activity change, negative = inhibition [2] [%] | activity change, negative = inhibition [3] [%] | activity change, negative = inhibition [4] [%] | activity change, negative = inhibition [5] [%]
Cn1c(=O)n(C)c2cc(S(=O)(=O)NCc3ccccc3Cl)ccc21 | 12.1 | 0 | 5.3 | -4.53 | -2.87
COc1cccc(CN2C(=O)c3cc4ccccc4n3CC2(C)C(=O)NC2CCCCCC2)c1 (stereo not given) | -5.16 | 0 | -5.65 | -17.8 | -14.3
COc1ccc(C2NC(C(=O)O)Cc3c2[nH]c2ccccc32)cc1OC (stereo not given) | -17.3 | 0.324 | 8.44 | -3.12 | 3.34
C=CC(C)(C)C12CC3C(=O)NC(Cc4cnc[nH]4)C(=O)N3C1Nc1ccccc12 (stereo not given) | 5.18 | 2.13 | 7.19 | -11.4 | -10.6
CCOC(=O)N1CCC(N[C@@H]2CC[C@@H]2NC(=O)CCn2cncn2)CC1 | -1.52 | -4.4 | 0.024 | -8.14 | -3.62
C=C1C2CCC3CC2(CC(O)C2(O)C1CC(OC1OC(CO)C(O)C(O)C1O)C2(C)C)CC3(C)O (stereo not given) | -0.025 | 1.88 | 9.12 | -9.57 | 1.69
NC(=O)COC[C@@H]1CN(Cc2ccco2)C[C@H]1c1ccncc1 | -9.41 | -11.9 | -7.82 | -14 | 5.71
COC[C@H]1NC(=O)CC[C@H]1C(=O)N1CCCc2ccccc21 | -4.71 | -2.11 | 1.13 | -5.61 | -0.163
CCC(=O)O[C@]1(C(=O)CCl)[C@@H](C)C[C@H]2[C@@H]3C[C@H](F)C4=CC(=O)C=C[C@]4(C)[C@@]3(F)[C@@H](O)C[C@@]21C | -2.12 | 2.69 | 8.72 | -22.5 | -2.68
Cc1ccc(CNC(=O)C2(C)Cn3cnc(C(=O)NCc4ccc(N(C)C)cc4)c3C(=O)N2C2CC2)cc1 (stereo not given) | -6.85 | 0.736 | -1.36 | -1.44 | -5.03
CCc1cc2c(cc3n2CC(C)(C(=O)NC2CCCCC2)N(Cc2ccccc2)C3=O)s1 (stereo not given) | -8.41 | 0.956 | -8.86 | -5.58 | -10.9
O=C1CN(Cc2ccccc2Cl)S(=O)(=O)c2ccccc2N1Cc1ccc(Cl)cc1 | 17.1 | 0.85 | 12.5 | 7.34 | 10.4
CC(C)C1CCC(C(=O)N[C@@H](Cc2ccccc2)C(=O)O)CC1 (stereo not given in full) | -1.3 | – | 12.2 | – | –
CCCNC(=O)NCCn1c(C)cnc1-c1ccncc1 | -5.13 | -7.12 | -5.19 | -8.68 | -7.67
Cc1ccccc1NC(=O)CSc1nnc2n(CCCOC(C)C)c(=O)c3ccccc3n12 | -0.044 | 0 | 2.47 | 1.19 | 3.23
CCOC(=O)c1ccc2c(c1)C1C=CCC1C(c1ccccc1F)N2 (stereo not given) | -15 | -0.517 | -4.79 | -9.61 | -11.9
CC(C)CCn1c(=O)c2ccccc2n2c(CCC(=O)NCCCN3CCN(c4ccccc4F)CC3)nnc12 | -5.09 | 0.867 | 1.01 | 8.19 | 2.68
C/C=C/C1=CC2=C(CO1)C(=O)[C@](C)(O)[C@H](OC(=O)c1c(O)cc(OC)c(O)c1C)C2 | -0.901 | -6.13 | 1.21 | -16.2 | 1.3
CCCn1c(=O)c2ccc(C(=O)NC(C)CC)cc2n2c(=O)n(CC(=O)NC3CCCCC3)nc12 (stereo not given) | 3.5 | 0 | 7.04 | 3 | -2.69
C#CCN(C)CC[C@@H]1CC[C@H](O)[C@@H](C(=O)NC2CCCCC2)O1 | -3.66 | -7.92 | -2.75 | -11.7 | -4.8

Reference: PubChem BioAssay AID1745853 (National Center for Advancing Translational Sciences (NCATS), 2022)
